Whole data set: some 110,000 compounds, median “z-score” near -0.1, cut for the highest 2% near 2. This is one part of the list. Active and inactive are the calls of the source.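 How the source made its calls: active means z-score in the third read window above 3 or below -3; inactive means the rest.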

For this assay, the target named is Metabotropic glutamate receptor 8 (Rattus norvegicus) (UniProt P70579). Kind of assay: mGluR8 Gi/Go-coupled signaling modulation – cell-based, rat, thallium flux, HTS, primary screen (AID 488969). Particulars: HEK293 rat mGluR8, GIRK (G protein-gated inwardly rectifying potassium channel) thallium flux, FluoZin2; at 10 µM; stronger effect = higher value; submaximal glutamate (EC20) added with thallium.
Sequence of UniProt P70579 (P70579 whole entry, looked up): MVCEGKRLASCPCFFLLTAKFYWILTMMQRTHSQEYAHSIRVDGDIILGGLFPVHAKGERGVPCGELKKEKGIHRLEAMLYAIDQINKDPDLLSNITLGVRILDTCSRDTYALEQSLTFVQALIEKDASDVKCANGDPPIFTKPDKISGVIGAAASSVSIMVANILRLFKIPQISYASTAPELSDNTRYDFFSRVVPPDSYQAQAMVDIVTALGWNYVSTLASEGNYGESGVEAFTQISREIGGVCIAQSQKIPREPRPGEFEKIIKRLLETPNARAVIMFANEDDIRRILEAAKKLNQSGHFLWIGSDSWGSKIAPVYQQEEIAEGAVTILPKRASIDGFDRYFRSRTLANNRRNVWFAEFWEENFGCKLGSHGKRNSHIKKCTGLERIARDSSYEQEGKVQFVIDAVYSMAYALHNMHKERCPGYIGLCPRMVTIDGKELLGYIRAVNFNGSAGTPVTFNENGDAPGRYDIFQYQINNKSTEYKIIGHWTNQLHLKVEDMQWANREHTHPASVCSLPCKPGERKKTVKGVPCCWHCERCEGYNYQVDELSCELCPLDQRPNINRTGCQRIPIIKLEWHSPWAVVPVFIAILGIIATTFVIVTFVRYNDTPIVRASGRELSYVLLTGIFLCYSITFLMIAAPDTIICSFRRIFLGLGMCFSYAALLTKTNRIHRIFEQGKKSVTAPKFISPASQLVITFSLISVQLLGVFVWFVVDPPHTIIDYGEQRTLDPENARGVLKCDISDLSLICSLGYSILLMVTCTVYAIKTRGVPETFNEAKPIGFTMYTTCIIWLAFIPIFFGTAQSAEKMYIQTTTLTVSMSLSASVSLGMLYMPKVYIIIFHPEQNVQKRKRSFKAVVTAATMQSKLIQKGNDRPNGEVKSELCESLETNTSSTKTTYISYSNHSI
`CCOc1cc(N2CCOCC2)c(OCC)cc1NC(=O)Cc1cccc(OC)c1` displayed a z-score of 0.174.

Consider `Cc1cc(Cl)ccc1OCCCC(=O)N1CCCCC1`, for which the z-score was -0.56.

With `COc1ccc2c(-c3cccnc3)cc(=O)[nH]c2c1`, the z-score is -0.00403.

Molecule `COc1cccc(-n2c(SC)nnc2-c2c[nH]c3ccccc23)c1` yielded a z-score of -0.763.

In turn, `Cc1nn(Cc2c(Cl)cccc2Cl)c(Cl)c1/C=C/C(=O)OCC(=O)NCC(F)(F)F` had a z-score of 0.111.

Take `Cc1cccc(N2C(=O)CC(N3CCN(Cc4ccc(Cl)cc4)CC3)C2=O)c1` (stereo unspecified): the z-score is -0.358.

On to `COc1ccc(CCNS(=O)(=O)c2ccccc2)cc1OC`, for which the z-score is -0.0361.

Regarding `C=C(C)Cn1c(SCC(=O)O)nnc1-c1ccc(C(C)(C)C)cc1`, the z-score was -0.161.

Regarding `CCOC(=O)c1c(C)[nH]c(C(=O)CSc2nccc(C)n2)c1C`, the z-score turned out to be 0.221.

With `CCOC(=O)Nc1ccc(C)cc1Br`, the z-score was determined as 0.567.

`Cc1cc(S(=O)(=O)NCC(=O)O)ccc1F` gave a z-score of 0.254.

Consider `CCN(CC)S(=O)(=O)c1ccc(N2CCCC2)c(C(=O)Nc2ccc(OC)c(Cl)c2)c1`, for which the z-score is -0.0234.

`O=C(Nc1cccc(Cl)c1)OCc1cncs1` displayed a z-score of -0.255.

Turning to `COc1cccc(/C=N/NC(=O)C(=O)Nc2ccccc2OC(F)(F)C(F)F)c1`, the z-score is -0.0878.

For `Cc1cc(C(C)c2ccccc2)c(O)c(CN2CCOCC2)c1C` (stereo unspecified), the z-score is -0.258.

On to `CC(NC(=O)c1ccccc1Cl)c1nnc(SCC(=O)Nc2ccc(C(=O)O)cc2)n1C` (stereo unspecified), for which the z-score turned out to be 0.391.

Molecule `CCc1nc(SCC(=O)Nc2nc3c(s2)CCCC3)c2ccccc2n1` registered a z-score of 0.0515.

In turn, `CCC(C)[C@H](N)c1nnc(SCC(=O)c2ccc(Cl)cc2)o1` (stereo partly specified) came in with a z-score of -0.177.

On to `O=c1cc(CO)oc(C(Nc2ccccn2)c2ccc(F)cc2)c1O` (stereo unspecified), for which the z-score is -0.459.

`O=C(NC1CCCc2ccccc21)c1cccc(S(=O)(=O)N2CCN(c3ccccc3)CC2)c1` (stereo unspecified) came in with a z-score of 2.28.

`CC(=O)/C=C/n1c(=S)oc2ccccc21` had a z-score of 0.136.

Molecule `Nc1nonc1-c1noc(-c2ccccc2)n1` gave a z-score of -0.0288.

In turn, `O=C(CSc1ccc(C(F)(F)F)cc1[N+](=O)[O-])NCCOc1ccccc1` registered a z-score of 0.0226.

As for `N#Cc1cn(-c2ccccc2)nc1C(=O)c1ccccc1`, the z-score is -0.342.

As for `CCC1(C)Cc2c(sc3c2c(=O)n(C)c2nnc(SCc4ccc5c(c4)OCO5)n32)CO1` (stereo unspecified), the z-score is active: 3.12.

`O=c1[nH]c2c(n(C3CCCCC3)c1=O)CCC2` gave a z-score of -0.0408.

Consider `N#C/C=C1\n2c(nc3ccccc32)OC12CCCCC2`, for which the z-score was found to be 0.0617.

Molecule `COC(=O)c1ccccc1NC(=O)C1CCN(C(=O)c2cc(OC)cc(OC)c2)CC1` returned a z-score of -0.592.

The molecule `Cc1cccc(N2C(=O)CC(NNc3nc4ccccc4s3)C2=O)c1` (stereo unspecified) returned a z-score of -0.0684.

In turn, `Cc1cc(C)nc(/N=C(\N)Nc2cccc([N+](=O)[O-])c2)n1` gave a z-score of -1.04.

Take `COc1ccc(C2c3cc(OC)c(OC)cc3CCN2C2CC(=O)N(c3ccccc3)C2=O)cc1OC` (stereo unspecified): the z-score was 0.062.

Source of the values: PubChem BioAssay AID488969 (Vanderbilt High Throughput Screening Facility, 2010).
